# Results taken from the supplement of paper PMC8728848.
# The other results are listed elsewhere or left out.
# B1: Epa1to9 (Candida glabrata) (protein)
# chain: MGSSHHHHHHSSGLVPRGSHMTSSNDISLASKDPTTFPLGCSPDITTPKKGLSMELYSYDFRKKGSYPCWDAAYLDPNYPRTGYKSHRLLAKVDGVTGNINFYYHATKGCTPQLGHLPASYNYPKPLTMTNFTMLLYGYFRPKVTGFHTFTISADDLLFVNFGAGNAFDCCRRDSSADHFGNYQAYAIWGSKTAKDELTVHLDAGVYYPIRLFYNNRDYHGALSFTFKTESNENTVSDFSEYFFSLDDTEEGCPGLISYD
# What was measured:
# Assay in all cases: glycan array binding signal (z-score within array); higher = stronger binding
# Settings in all cases: glycan notation: IUPAC condensed, linker removed
# [1] = target: Gal(b1-3)GlcNAc(b1-6)GalNAc
# Outline: (§1)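 Negative Z-scores can be read as non-binding. The Z-score is calculated within each array and then averaged across arrays of one protein sequence at different concentrations or buffers and across linkers. Arrays, 3228 in all, were curated from the Consortium for Functional Glycomics database and kept only where the protein sequence was available.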
# [2] = target: Gal(b1-3)GlcNAc(b1-6)[Gal(b1-3)]GalNAc
# Outline: as §1
# Gal(b1-3)GlcNAc6S = target: Gal(b1-3)GlcNAc6S
# Outline: as §1
# [3] = target: Gal(b1-3)[Fuc(a1-4)]GlcNAc
# Outline: as §1
# [4] = target: Gal(b1-3)[Fuc(a1-4)]GlcNAc(b1-2)Man
# Outline: as §1
# [5] = target: Gal(b1-3)[Fuc(a1-4)]GlcNAc(b1-2)Man(a1-3)[Gal(b1-3)[Fuc(a1-4)]GlcNAc(b1-2)Man(a1-6)]Man(b1-4)GlcNAc(b1-4)[Fuc(a1-6)]GlcNAc
# Outline: as §1
# [6] = target: Gal(b1-3)[Fuc(a1-4)]GlcNAc(b1-3)Gal(b1-3)[Fuc(a1-4)]GlcNAc
# Outline: as §1
# [7] = target: Gal(b1-3)[Fuc(a1-4)]GlcNAc(b1-3)Gal(b1-4)[Fuc(a1-3)]GlcNAc
# Outline: as §1
# [8] = target: Gal(b1-3)[Fuc(a1-4)]GlcNAc(b1-6)GalNAc
# Outline: as §1
# [9] = target: Gal(b1-3)[GlcNAc(b1-6)]GalNAc
# Outline: as §1
# [10] = target: Gal(b1-3)[Neu5Ac(a2-6)]GalNAc
# Outline: as §1
# [11] = target: Gal(b1-3)[Neu5Ac(a2-6)]GlcNAc(b1-4)Gal(b1-4)Glc
# Outline: as §1
# [12] = target: Gal(b1-3)[Neu5Ac(b2-6)]GalNAc
# Outline: as §1
# Gal(b1-4)Gal = target: Gal(b1-4)Gal
# Outline: as §1
# [13] = target: Gal(b1-4)GalNAc(a1-3)[Fuc(a1-2)]Gal(b1-4)GlcNAc
# Outline: as §1
# [14] = target: Gal(b1-4)GalNAc(b1-3)[Fuc(a1-2)]Gal(b1-4)GlcNAc
# Outline: as §1
# Gal(b1-4)Glc = target: Gal(b1-4)Glc
# Outline: as §1
# Gal(b1-4)Glc6S = target: Gal(b1-4)Glc6S
# Outline: as §1
# Gal(b1-4)GlcNAc = target: Gal(b1-4)GlcNAc
# Outline: as §1
# [15] = target: Gal(b1-4)GlcNAc(a1-6)Gal(b1-4)GlcNAc
# Outline: as §1
# Gal(b1-4)GlcNAc(b1-2)Man = target: Gal(b1-4)GlcNAc(b1-2)Man
# Outline: as §1
# [16] = target: Gal(b1-4)GlcNAc(b1-2)Man(a1-3)Man(b1-4)GlcNAc(b1-4)GlcNAc
# Outline: as §1
# [17] = target: Gal(b1-4)GlcNAc(b1-2)Man(a1-3)[Gal(b1-4)GlcNAc(b1-2)Man(a1-6)]Man(b1-4)GlcNAc(b1-4)GlcNAc
# Outline: as §1
# [18] = target: Gal(b1-4)GlcNAc(b1-2)Man(a1-3)[Gal(b1-4)GlcNAc(b1-2)Man(a1-6)]Man(b1-4)GlcNAc(b1-4)[Fuc(a1-6)]GlcNAc
# Outline: as §1
# [19] = target: Gal(b1-4)GlcNAc(b1-2)Man(a1-3)[Gal(b1-4)GlcNAc(b1-2)Man(a1-6)][Gal(b1-4)GlcNAc(b1-4)]Man(b1-4)GlcNAc(b1-4)[Fuc(a1-6)]GlcNAc
# Outline: as §1
# [20] = target: Gal(b1-4)GlcNAc(b1-2)Man(a1-3)[Gal(b1-4)GlcNAc(b1-2)Man(a1-6)][GlcNAc(b1-4)]Man(b1-4)GlcNAc(b1-4)[Fuc(a1-6)]GlcNAc
# Outline: as §1
# [21] = target: Gal(b1-4)GlcNAc(b1-2)Man(a1-3)[GlcNAc(b1-2)Man(a1-6)]Man(b1-4)GlcNAc(b1-4)GlcNAc
# Outline: as §1
# [22] = target: Gal(b1-4)GlcNAc(b1-2)Man(a1-3)[GlcNAc(b1-4)][Gal(b1-4)GlcNAc(b1-2)Man(a1-6)]Man(b1-4)GlcNAc(b1-4)GlcNAc
# Outline: as §1
# [23] = target: Gal(b1-4)GlcNAc(b1-2)Man(a1-3)[Man(a1-6)]Man(b1-4)GlcNAc(b1-4)GlcNAc
# Outline: as §1
# [24] = target: Gal(b1-4)GlcNAc(b1-2)Man(a1-6)Man(b1-4)GlcNAc(b1-4)GlcNAc
# Outline: as §1
# [25] = target: Gal(b1-4)GlcNAc(b1-2)Man(a1-6)[GlcNAc(b1-2)Man(a1-3)]Man(b1-4)GlcNAc(b1-4)GlcNAc
# Outline: as §1
# [26] = target: Gal(b1-4)GlcNAc(b1-2)Man(a1-6)[Man(a1-3)]Man(b1-4)GlcNAc(b1-4)GlcNAc
# Outline: as §1
# [27] = target: Gal(b1-4)GlcNAc(b1-2)[Gal(b1-4)GlcNAc(b1-4)]Man(a1-3)[Gal(b1-4)GlcNAc(b1-2)Man(a1-6)]Man(b1-4)GlcNAc(b1-4)GlcNAc
# Outline: as §1
# [28] = target: Gal(b1-4)GlcNAc(b1-2)[Gal(b1-4)GlcNAc(b1-4)]Man(a1-3)[Gal(b1-4)GlcNAc(b1-2)[Gal(b1-4)GlcNAc(b1-6)]Man(a1-6)]Man(b1-4)GlcNAc(b1-4)GlcNAc
# Outline: as §1
# [29] = target: Gal(b1-4)GlcNAc(b1-2)[Gal(b1-4)GlcNAc(b1-4)]Man(a1-3)[GlcNAc(b1-4)][Gal(b1-4)GlcNAc(b1-2)Man(a1-6)]Man(b1-4)GlcNAc(b1-4)GlcNAc
# Outline: as §1
# [30] = target: Gal(b1-4)GlcNAc(b1-2)[Gal(b1-4)GlcNAc(b1-4)]Man(a1-3)[GlcNAc(b1-4)][Gal(b1-4)GlcNAc(b1-2)[Gal(b1-4)GlcNAc(b1-6)]Man(a1-6)]Man(b1-4)GlcNAc(b1-4)GlcNAc
# Outline: as §1
# [31] = target: Gal(b1-4)GlcNAc(b1-2)[Gal(b1-4)GlcNAc(b1-6)]Man(a1-6)[Gal(b1-4)GlcNAc(b1-2)Man(a1-3)]Man(b1-4)GlcNAc(b1-4)GlcNAc
# Outline: as §1
binder,measurement,setting,value
B1,glycan array binding signal (z-score),[1],-0.179
same,glycan array binding signal (z-score),[2],0.836
same,glycan array binding signal (z-score),Gal(b1-3)GlcNAc6S,0.738
same,glycan array binding signal (z-score),[3],-0.177
same,glycan array binding signal (z-score),[4],-0.159
same,glycan array binding signal (z-score),[5],-0.26
same,glycan array binding signal (z-score),[6],-0.34
same,glycan array binding signal (z-score),[7],-0.348
same,glycan array binding signal (z-score),[8],-0.277
same,glycan array binding signal (z-score),[9],1.32
same,glycan array binding signal (z-score),[10],4.47
same,glycan array binding signal (z-score),[11],-0.166
same,glycan array binding signal (z-score),[12],2.26
same,glycan array binding signal (z-score),Gal(b1-4)Gal,-0.293
same,glycan array binding signal (z-score),[13],-0.071
same,glycan array binding signal (z-score),[14],1.66
same,glycan array binding signal (z-score),Gal(b1-4)Glc,0.111
same,glycan array binding signal (z-score),Gal(b1-4)Glc6S,0.828
same,glycan array binding signal (z-score),Gal(b1-4)GlcNAc,0.318
same,glycan array binding signal (z-score),[15],1.12
same,glycan array binding signal (z-score),Gal(b1-4)GlcNAc(b1-2)Man,-0.273
same,glycan array binding signal (z-score),[16],-0.102
same,glycan array binding signal (z-score),[17],1.17
same,glycan array binding signal (z-score),[18],0.309
same,glycan array binding signal (z-score),[19],-0.161
same,glycan array binding signal (z-score),[20],-0.041
same,glycan array binding signal (z-score),[21],-0.131
same,glycan array binding signal (z-score),[22],-0.068
same,glycan array binding signal (z-score),[23],-0.161
same,glycan array binding signal (z-score),[24],-0.159
same,glycan array binding signal (z-score),[25],-0.101
same,glycan array binding signal (z-score),[26],-0.197
same,glycan array binding signal (z-score),[27],0.315
same,glycan array binding signal (z-score),[28],2.08
same,glycan array binding signal (z-score),[29],0.104
same,glycan array binding signal (z-score),[30],0.491
same,glycan array binding signal (z-score),[31],2.54
